The supplement of paper PMC12217912
Some of the results follow. The full chains were built here from the parent and the listed change. Values near 0.05 are background.

B1: TEV protease; numbered along this chain (parent)
chain: MGESLFKGPRDYNPISSSICHLTNESDGHTTSLYGIGFGPFIITNKHLFRRNNGTLVVQSLHGVFKVKDTTTLQQHLVDGRDMIIIRMPKDFPPFPQKLKFREPQREERICLVTTNFQTKSMSSMVSDTSCTFPSGDGIFWKHWIQTKDGQCGSPLVSTRDGFIVGIHSASNFTNTNNYFTSVPKNFMELLTNQEAQQWVSGWRLNADSVLWGGHKVFMVKPEEPFQPVKEATQL

Variants of: B1
Experiment: raw area under fraction-flipped curve 0-4 h after induction (AUC4h, not background-subtracted), DNA-recorder readout of cleavage of the substrate (dimensionless); higher = more cleavage of the substrate by the protease variant
Details: temperature: 34 °C; time window: 0-4 h after rhamnose induction
Description: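 In vivo DNA recorder in E. coli TOP10(DE3) ΔrhaA at 34 °C. Each TEVp single-site mutant (parent TEVp 0) is paired with a single-site variant of the 7-mer TEVs (canonical ENLYFQ|S). The substrate sits between flexible linkers in a Bxb1-sfGFP-TEVs-SsrA fusion, so cleavage stabilises Bxb1 and speeds flipping of a recombination array, read by NGS. The value is the raw area under the fraction-flipped curve over 0-4 h after rhamnose induction (AUC4h), with ≥20 reads per time point. It is not background-subtracted; inactive controls average about 0.047.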
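Note: Bxb1 expression induced with 0.2% (w/v) L-rhamnose at OD600 near 0.5, cultures sampled hourly, flipped fraction per protease–substrate barcode pair counted by paired-end Illumina sequencing.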

Variant | area with substrate FNLYFQS | area with substrate INLYFQS | area with substrate NNLYFQS | area with substrate PNLYFQS | area with substrate RNLYFQS | area with substrate WNLYFQS | area with substrate SNLYFQS | area with substrate TNLYFQS | area with substrate HNLYFQS | area with substrate LNLYFQS
F101S | 0.0315 | 0.0581 | 0.0449 | 0.0636 | 0.0506 | 0.0305 |  |  |  | 
F92V | 0.0616 | 0.0586 |  |  |  | 0.0596 | 0.0578 | 0.0694 |  | 
F92N | 0.0643 |  |  | 0.0744 |  |  | 0.0558 |  | 0.0764 | 0.0528
F92L | 0.0699 | 0.0639 |  |  |  | 0.0666 | 0.0535 | 0.0552 | 0.0697 | 0.0657
P94V | 0.0524 |  |  | 0.0749 |  | 0.0629 |  | 0.0775 | 0.0842 | 0.0714
V78D | 0.0382 | 0.0473 | 0.0464 | 0.0842 |  | 0.059 |  | 0.0546 | 0.056 | 0.045
V78E | 0.0445 |  | 0.0177 | 0.0636 | 0.0494 | 0.0547 | 0.0418 | 0.0639 | 0.0696 | 0.0641
T129D | 0.0766 | 0.0745 | 0.057 | 0.0411 |  |  | 0.0718 |  |  | 
Q59H | 0.0669 | 0.0534 |  | 0.0584 |  |  | 0.0646 | 0.0614 | 0.0624 | 
P9N | 0.0417 |  |  |  |  |  |  |  | 0.0574 | 
T115R | 0.0224 | 0.058 |  |  |  |  |  | 0.0654 | 0.0749 | 0.0281
K7V | 0.0519 |  | 0.0577 | 0.0657 |  | 0.078 | 0.0702 | 0.0935 |  | 0.0623
K7W | 0.0784 | 0.068 |  |  |  |  |  | 0.0738 |  | 0.0835
R81A | 0.0563 |  | 0.0717 |  |  | 0.0575 | 0.0868 |  |  | 0.0632
T132N | 0.0487 |  | 0.0677 | 0.0499 |  | 0.068 | 0.0592 | 0.0675 |  | 
G153C | 0.0579 | 0.0798 | 0.0739 | 0.08 |  | 0.0373 |  | 0.0343 | 0.0398 | 0.0569
S154A | 0.0622 | 0.0569 |  | 0.065 | 0.0804 | 0.0596 | 0.0668 | 0.0593 | 0.0718 | 0.0604
S154D | 0.0599 | 0.0593 |  | 0.0336 |  |  | 0.0443 | 0.0663 | 0.0548 | 0.0565
S154V | 0.0527 |  |  |  |  | 0.0524 |  |  | 0.0591 | 0.0459
D149I | 0.0502 | 0.0663 | 0.0488 |  | 0.0623 | 0.0302 |  |  | 0.0521 | 

Variant | area with substrate FNLYFQS | area with substrate INLYFQS | area with substrate NNLYFQS | area with substrate PNLYFQS | area with substrate RNLYFQS | area with substrate WNLYFQS | area with substrate SNLYFQS | area with substrate TNLYFQS | area with substrate HNLYFQS | area with substrate LNLYFQS
E25S | 0.0735 | 0.064 | 0.0584 | 0.0678 | 0.0546 | 0.0582 | 0.0426 | 0.0687 | 0.065 | 0.0652
H143N | 0.0532 |  |  |  |  |  |  | 0.052 | 0.0666 | 
D91S | 0.0361 | 0.0624 | 0.0421 |  |  | 0.0698 |  | 0.0732 | 0.0663 | 
D91M | 0.0612 |  |  | 0.0653 |  |  | 0.0784 |  |  | 0.0748
T44M | 0.0473 | 0.0543 | 0.0458 | 0.0561 |  | 0.0459 | 0.0576 | 0.0542 | 0.0511 | 
V67G | 0.042 | 0.0378 |  | 0.0462 |  | 0.0481 | 0.0505 | 0.0858 | 0.0428 | 0.0591
T119S | 0.0599 | 0.0729 |  |  |  |  | 0.0306 |  | 0.0625 | 0.0616
S18G | 0.078 |  | 0.0667 |  | 0.0577 | 0.0539 |  |  | 0.0646 | 
L99M | 0.0474 |  | 0.0525 |  |  |  |  |  |  | 0.0681
S135H | 0.0488 |  |  |  |  | 0.0731 |  |  | 0.0565 | 0.0586
E103M | 0.0608 | 0.0543 |  | 0.0713 |  | 0.057 | 0.074 | 0.0765 | 0.0692 | 
E103P | 0.0518 | 0.0522 |  |  |  |  |  | 0.0591 | 0.056 | 
E103D | 0.0402 |  |  |  |  | 0.0607 |  |  |  | 
V113K | 0.0416 | 0.0546 | 0.0642 | 0.0607 |  | 0.0525 | 0.055 |  | 0.0561 | 0.0722
E3A | 0.0757 |  |  |  |  | 0.0716 | 0.0622 | 0.0741 | 0.068 | 0.0626
E3W | 0.0577 |  |  | 0.0705 |  | 0.0589 |  | 0.075 | 0.0485 | 0.0677
E3D | 0.0626 | 0.0566 | 0.1 | 0.0398 | 0.0596 | 0.0537 | 0.0674 | 0.0591 | 0.0682 | 0.0292
I15G | 0.0592 | 0.0673 |  | 0.0567 |  | 0.0432 |  | 0.0508 |  | 0.0618
D137A | 0.0604 |  |  |  |  |  |  |  |  | 
L33D | 0.0515 |  | 0.0652 | 0.0569 |  |  | 0.0558 | 0.0525 | 0.0556 | 0.0718

Same assay, conditions: temperature: 34 °C; time window: 0-4 h after rhamnose induction

Variant | area with substrate VNLYFQS | area with substrate YNLYFQS | area with substrate MNLYFQS | area with substrate GNLYFQS | area with substrate KNLYFQS | area with substrate QNLYFQS
F92N | 0.0592 | 0.0543 |  |  |  | 
F92L | 0.0491 | 0.0439 | 0.0806 |  |  | 
P94V | 0.0625 |  | 0.0755 | 0.0948 |  | 
V78D |  |  |  | 0.054 |  | 
V78E | 0.04 | 0.0472 | 0.0693 |  | 0.0721 | 0.0673
T129D |  |  |  | 0.0701 | 0.0685 | 0.0735
Q59H | 0.0678 | 0.0762 | 0.0591 | 0.069 | 0.0473 | 
P9N |  | 0.0678 |  |  | 0.0627 | 
T115R | 0.0626 |  |  | 0.0706 |  | 0.0695
K7V | 0.0715 | 0.08 |  |  |  | 
K7W | 0.0515 |  | 0.0647 |  |  | 
R81A |  |  |  | 0.0668 |  | 
T132N |  | 0.0685 | 0.0665 |  |  | 
G153C | 0.0448 |  |  |  | 0.0867 | 
S154A |  | 0.0529 | 0.0773 | 0.0634 |  | 
S154D |  | 0.0318 |  |  |  | 0.0403
S154V |  |  | 0.0685 |  | 0.0546 | 
D149I | 0.0658 |  |  |  |  | 

Variant | area with substrate VNLYFQS | area with substrate YNLYFQS | area with substrate MNLYFQS | area with substrate GNLYFQS | area with substrate KNLYFQS | area with substrate QNLYFQS
E25S | 0.0696 | 0.0635 | 0.0606 | 0.0788 |  | 
H143N |  | 0.0435 |  |  |  | 
D91S | 0.0745 | 0.0658 |  |  |  | 0.0681
D91M |  |  |  |  | 0.0689 | 
T44M |  | 0.0449 |  | 0.0501 | 0.0492 | 
V67G | 0.053 | 0.0566 | 0.0605 |  |  | 0.0404
S18G |  | 0.0731 | 0.0676 |  |  | 
L99M |  | 0.0747 | 0.0661 |  | 0.0726 | 
S135H |  |  | 0.0613 |  |  | 
E103M | 0.0558 | 0.0748 |  |  |  | 
E103P | 0.0749 | 0.0632 |  |  |  | 
E103D |  | 0.0458 |  |  |  | 
V113K |  |  |  |  |  | 0.0545
E3A |  | 0.0672 |  | 0.0732 | 0.0384 | 
E3W |  | 0.0772 | 0.0714 |  |  | 
E3D | 0.0141 | 0.0655 |  |  |  | 
I15G | 0.0594 |  |  | 0.0605 | 0.0604 | 0.0566
L33D | 0.0699 | 0.0386 |  | 0.0455 |  | 
